From publication PMC11683816 (Journal of thrombosis and haemostasis : JTH, 2019)

Legend:
Assay in all cases: SPR
[1] = biological target: GPIbα G233V (amino acids H1-E285) (UniProt P07359 17-301, G233V)
[2] = biological target: Wild-type GPIbα (amino acids H1-E285) (UniProt P07359 17-301)
[3] = biological target: GPIbα M239V (amino acids H1-E285) (UniProt P07359 17-301, M239V)
[4] = biological target: GPIbα G233V/M239V double mutant (amino acids H1-E285) (UniProt P07359 17-301, G233V | M239V)

binding result [1]: binds
binding result [2]: binds
binding result [3]: binds
binding result [4]: binds
B1: A1 domain of von Willebrand factor ([…]) (domain or fragment)
chain: not shown
